Experimental data taken from PubChem BioAssay AID1362 (SRMLSC, 2008).
Some of the results follow. Shown are side measurements of this screen, not its main read-out; they come without a call. The list favours compounds with an active or inconclusive main result.

Assay: growth inhibition of WT strain, primary screen, mitochondrial fusion inhibitor project, WT and mutant strains, chemical genetic (AID 1362); also: tested in S. cerevisiae
Conditions: mitochondrial fusion phenotypic screen, at 10 µM

Row | SMILES | inhibition [%]
1 | CC(C)c1ccc(-c2noc(C3CCCN(C(=O)c4ccc(F)cc4F)C3)n2)cc1 (stereo not given) | 27.8
2 | CCC[C@@H]1C[C@@]1(CCC)[C@@H](NP(=O)(c1ccccc1)c1ccccc1)c1ccc(C(=O)OC)cc1 | -0.22
3 | CC(C)SCc1cc(N2CCCC2)nc(-c2ccccc2)n1 | 0.55
4 | COc1cc(/C=N/NC(=O)CCc2ccccc2)ccc1O | 6.57
5 | Cc1ccc(-c2nnc3sc(C4COc5ccccc5O4)nn23)cc1 (stereo not given) | 43
6 | S=c1[nH]c(-c2ccccc2)cn1/N=C/c1ccccc1Br | 62.8
7 | Cc1cccc(Cn2c(Cc3ccccc3)nc3ccccc32)c1 | 51.5
8 | CCOC(=O)C1(S(=O)(=O)c2ccc(Cl)cc2)CCN(Cc2ccc(C)cc2)CC1 | 46.9
9 | COc1ccc(Br)cc1CN(C)CC(=O)Nc1ccccc1Cl | 16.6
10 | S=c1[nH]nc(Cc2ccc(Br)cc2)n1/N=C/c1ccc(Cl)cc1 | 85.7
11 | Cc1ccccc1COC(=O)c1nn(-c2ccccc2)nc1N | 7.64
12 | CCOC(=O)/C(=C/c1c2ccccc2cc2ccccc12)NC(=O)c1ccccc1 | 44.8
13 | CN(C)c1ccnc(N(Cc2ccccc2)Cc2ccccc2)c1C#N | 65.8
14 | Cc1ccc(NC(=S)Nc2ccc(OC(F)F)c(Cl)c2)cc1F | 60.9
15 | O=C(N/N=C/c1cccc(F)c1)c1cc(-c2ccco2)nc2ccccc12 | 10.2
16 | CN(C)CCCN(C(=O)/C=C/c1cccs1)c1nc2ccc(F)cc2s1 | 83.9
17 | O=C(Nc1ccccc1Cc1ccccc1)c1ccccc1NS(=O)(=O)c1ccc(Cl)s1 | 67.6
18 | Cc1ccc(NCc2n[nH]c(=S)n2Cc2ccccc2)cc1Cl | 30.2
19 | Cc1scc(-c2n[nH]c(=S)n2Cc2ccccc2)c1C | 34.1
20 | FC(F)(F)c1cc(Sc2ccccc2)nc(-c2ccccn2)n1 | 55.8
21 | CCOC(=O)Cc1c(Sc2ccccc2)c2cc(C)ccc2n1C | -1.94
22 | CCc1cc(-c2n[nH]c(C)c2Oc2ccc(C(C)C)cc2)c(O)cc1O | 81
23 | COc1cc(/C=C2/SC(=S)NC2=O)ccc1OS(=O)(=O)c1ccc(C)cc1 | 35.2
24 | Cc1cc(C)nc(N2CCC(C(=O)NCCc3ccc(F)cc3)CC2)n1 | 16.7
25 | Clc1cccc(-c2cc3nc4c(c(N5CCN(c6cnccn6)CC5)n3n2)CCCC4)c1 | 22.8
26 | Oc1nc(Nc2ccc(Cl)cc2Cl)sc1/C=C1\C=Nc2ccccc21 | 40
27 | CCOC(=O)N1CCC(NC(=O)c2cc(-c3ccc(F)cc3)[nH]c2C)CC1 | -5.91

Row | SMILES | inhibition [%]
28 | CN(C)c1cc(N/N=C\c2ccccc2)nc(N(C)C)n1 | 44.9
29 | Cc1ccc2c(c1)c(N=O)c(O)n2Cc1ccc(Cl)cc1 | 24.5
30 | COc1ccc(C(C(=O)NC2CCCC2)N(Cc2ccccc2)C(=O)c2nsc(Cl)c2Cl)cc1 (stereo not given) | 23.5
31 | CC1CCc2c(sc(NC(=O)COC(=O)c3ccc(O)cc3)c2C#N)C1 (stereo not given) | 20.3
32 | CCC1=NN2C(=N)/C(=C\c3cccn3-c3cccc(Cl)c3)C(=O)N=C2S1 | 17.3
33 | CSC(=S)N/N=C(\C)c1ccccc1 | 37.2
34 | Cc1nn(C(C)(C)C)c(OC(=O)c2cccs2)c1Sc1ccccc1 | 22.5
35 | NC(=O)c1cc(Cc2ccccc2)sc1NC(=O)c1ccco1 | 66.3
36 | C/C(=N\NC(=O)COc1ccc(C(C)(C)C)cc1)c1ccc(-n2ccnc2)cc1 | 68.1
37 | Cc1ccc(C)c(C(=O)N(Cc2nc(-c3ccc(Cl)cc3)no2)C(C)C)c1 | 25.7
38 | Cc1cccc(NC(=S)NNC(=O)COc2ccc(Cl)cc2Cl)c1 | 11.9
39 | CCNc1nc(SCCOc2ccc(Cl)cc2Cl)nc(N(C)C)n1 | 8.4
40 | Cc1ccccc1S(=O)(=O)c1c(C)cc(C)n(CC(C)C)c1=O | 17.2
41 | CCN1CCN(c2cc(N3CCc4ccccc4C3)c(F)cc2[N+](=O)[O-])CC1 | 33.5
42 | CC(C)COc1ccc(CNC(=S)NCc2ccccc2)cc1 | 66.2
43 | COc1ccc(-c2csc(Nc3ccc(C)cn3)n2)cc1 | 54.5
44 | S=C(NNc1cccc(Cl)c1)NC1CCCCC1 | 25.3
45 | C/C(=N\NC(=O)c1ccccc1O)c1ccc(Br)s1 | 64.4
46 | N/C(=N/O)c1ccccc1N1CCC(Cc2ccccc2)CC1 | 64.7
47 | Cc1cccc2nc(CSc3ccc(Cl)cc3)cn12 | 61.2
48 | Cc1cc(C)n(CC(O)Cn2c3ccc(Br)cc3c3cc(Br)ccc32)c(=O)n1 (stereo not given) | 5.42
49 | CCCc1cc(-c2nc(-c3ccc(Br)cc3)cs2)ccn1 | 62.1
50 | O=S(Cc1ccc(Br)cc1)Cc1nnc(SCc2ccc(Br)cc2)n1-c1ccccc1 (stereo not given) | -3.35
51 | COC(=O)c1c(NC(=O)CN2CCC3(O)CCCCC3C2c2ccc(F)cc2)sc(C)c1C (stereo not given) | -0.63
52 | COc1ccc2c(c1)C=C(C(=O)NCc1ccc(Cl)cc1)CO2 | 50.4
53 | CCOC(=O)c1c(CN2CCN(Cc3ccccc3)CC2)n(C)c2cc(Br)c(OC)cc12 | 90.5
54 | Cc1ccc(C(=O)c2c(NC(=O)c3cccnc3)sc3c2CCCC3)cc1 | 29.5

Row | SMILES | inhibition [%]
55 | CC(C)c1ccc(S(=O)(=O)/N=C2/C=CC(=O)c3ccccc32)cc1 | 15.8
56 | O=[N+]([O-])c1ccc(NCCCNS(=O)(=O)c2ccc(Cl)cc2)c(Cl)c1 | 25.5
57 | NC(=O)c1ccc(NC(=O)COC(=O)c2c3c(nc4ccccc24)/C(=C\c2cccs2)CCC3)cc1 | 38.5
58 | COc1ccc(C(C)(C)C)cc1NC(=O)c1cncc(Br)c1 | -1.97
59 | Cc1cc(C)c(S(=O)(=O)/N=C2/C=C(SCC(=O)O)C(=O)c3ccccc32)cc1C | 43
60 | O=C(CSc1nnc(CCc2ccccc2)n1-c1ccc(Cl)cc1)c1ccccc1 | 4.34
61 | Fc1ccc(N2CCN(C3=Nc4cccc5cccc3c45)CC2)cc1 | 34
62 | Cc1ccc(NC(=O)C2(c3ccccc3)CC2(Cl)Cl)cc1C (stereo not given) | -12.2
63 | CCNc1nc(NC(C)C)nc(N(C#N)CCOc2ccc(Cl)cc2Cl)n1 | 39.4
64 | O=[N+]([O-])c1ccc(N/N=C\c2cccn2-c2ccccc2)nc1 | 38.5
65 | COc1cc(Cl)cc(/C=C/c2ccc3ccccc3n2)c1OC(C)=O | 25.1
66 | Cc1nc(Nc2ccc(Cl)cc2Cl)sc1C(=O)Nc1ccccc1 | 61.3
67 | CC1C/C(=N\NC(=S)NCc2ccccc2)CC(C)(C)C1 (stereo not given) | 62.3
68 | CC1C(c2ccccc2)N(C)C(c2ccccc2)CC1(O)c1ccc(F)cc1 (stereo not given) | 22.1
69 | COc1ccccc1N1CCN(c2ncc(C(=O)N3CCN(c4cccc(Cl)c4)CC3)c3ccccc23)CC1 | 46.3
70 | O=C(Nc1nc(-c2ccccc2)cs1)c1ccccc1NS(=O)(=O)c1ccc(F)cc1 | 58.2
71 | COC(=O)C1=CN(CCOC23CC4CC(CC(C4)C2)C3)C=C(C(=O)OC)C1c1ccsc1 | 3.15
72 | CCc1nc(N2CCC(C)CC2)c2oc3ccccc3c2n1 | 65.5
73 | COc1ccc(-c2cc3nc(C)cc(N4CC(C)CC(C)C4)n3n2)cc1 (stereo not given) | 8.88
74 | COc1ccc(/C=C/C(=O)c2cc(Br)ccc2OC(=O)c2ccco2)cc1OC | 34.2
75 | COc1cccc2c1C(=O)c1c(O)c3c(c(O)c1C2=O)C[C@@](O)(C(C)=O)C[C@@H]3O[C@H]1C[C@H](N)[C@H](O)[C@H](C)O1 | 50.4
76 | Cc1ccc(C)c(NC(=O)c2cc(-c3ccccc3)nn2-c2ccccc2)c1 | -3.55
77 | Cc1cc(C)cc(NC(=S)NCCSc2ccc(Cl)cc2)c1 | 28.4
78 | O=[N+]([O-])c1ccc2nc(/C=C/c3ccc(Cl)cc3)[nH]c2c1 | 57.5
79 | CCCN(CCC)CCCNC(=O)CS(=O)Cc1nc(-c2ccc(OC)c(OC)c2)oc1C (stereo not given) | 0.8
80 | Cc1cc(C)c(CSc2ncnc3nc[nH]c23)c(C)c1 | 66.4
81 | O=C(/C=C/c1ccc(N2CCCCC2)c([N+](=O)[O-])c1)c1ccc(O)cc1 | 83.8

Row | SMILES | inhibition [%]
82 | Cc1cccc(Nc2nc(N)c([N+](=O)[O-])c(N3CC(C)CC(C)C3)n2)c1 (stereo not given) | 83.4
83 | NC(=O)c1ccc(N2CCCCC2)c(N2C(=O)C3CC=CCC3C2=O)c1 (stereo not given) | -0.48
84 | O=S(=O)(Nc1nc2ccccc2nc1NCc1ccco1)c1ccc(Cl)cc1 | 18.7
85 | Oc1c(Br)cc(Br)cc1CNc1ccc(F)cc1 | 51.8
86 | Cc1cc(C)c(C#N)c(N2CCN(CCOc3ccc(Cl)cc3)CC2)n1 | 49.6
87 | Cc1ccc(S(=O)(=O)c2c(C)nn(C(C)(C)C)c2OC(=O)C2CCCC2)cc1 | 26.8
88 | CN(C)c1nc(-c2ccccn2)nnc1-c1ccccc1 | 58.3
89 | Cc1ccc(-c2c(C(=O)N(C)Cc3ccccc3)oc(=O)c3ccccc23)cc1 | 33.6
90 | COc1ccc(C(=O)c2c(C(F)(F)F)oc3c2C(=O)c2ccccc2C3=O)cc1OC | 76.7
91 | COCCN1C(=O)/C(=C/c2ccc(OCc3ccc(C(=O)O)cc3)c(OC)c2)SC1=Nc1ccccc1 | 6.07
92 | O=C(N/N=C/C(Br)=C/c1ccccc1)NC1CCCCC1 | 86
93 | CCOC(=O)C(CC)(CC)C(=O)/C=C/c1ccc(Br)cc1 | 12.7
94 | CCCc1cc(C(=O)Cc2ccc(F)cc2)c(O)cc1O | 41
95 | CN(C(=S)Nc1ccc(SC(F)F)cc1)c1ccc(O)cc1 | 31.4
96 | O=C(/C=C/c1ccco1)Nc1ccccc1N1CCCCC1 | 20.9
97 | CC(C)(C)c1ccc(OCC(=O)N2CCCCCC2)c(Br)c1 | 15.8
98 | Cc1cc(C)n(-c2nc3sc4c(c3c(=O)[nH]2)CCCC4)n1 | 65.4
99 | CCC(C)c1ccc(NC(=S)NC(C)C2CCCO2)cc1 (stereo not given) | 48.5
100 | COc1ccc2ccc3c(c2c1)N=CC1(O3)N(C)c2ccccc2C1(C)C (stereo not given) | 13.6
101 | CC(C)C1Nc2c(O)cc(Cl)c([N+](=O)[O-])c2C2C=CCC21 (stereo not given) | 43.4
102 | Cc1ccc(NC(=O)C2SC(=Nc3ccccc3)C(C(=O)Nc3ccc(Cl)cc3)=C2N)cc1 (stereo not given) | 9.64
103 | Cn1c(N/N=C/c2ccccc2)nc2sc3c(c2c1=O)CCC3 | 60.5
104 | CCOC(=O)C1CCC(CN(Cc2ccccc2C)S(=O)(=O)c2ccc([N+](=O)[O-])cc2)CC1 (stereo not given) | 29.1
105 | Cc1onc(-c2ccccc2)c1C(=O)Nc1nnc(COc2ccc(Cl)cc2)s1 | 39.3
